Laboratory results: PubChem BioAssay AID1508642 (National Center for Advancing Translational Sciences (NCATS), 2021)
Among all 43,000 compounds or so, about 200 (0.47%) were called active. Not shown: some 12% with an inconclusive outcome. Calls follow the shape of the dose curve; as a rule, active = well fitted cell-killing curve with a large enough effect; inconclusive = small, poorly fitted or top-dose-only effect, or effect the other way; inactive = flat fitted curve, though single readings scatter. The list shows a part of the results.

experiment: Cell viability qHTS assay in S16 Pmp22-F2sN cells; conditions: S16 Pmp22-F2sN Schwann cells viability, CellTiter-Glo, 24 h; series mostly up to 57.5 µM; activity change, negative = cytotoxicity: at the top concentration; also: nearly all actives have a fitted effect of over 65% in size
In short: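 S16 Pmp22-F2sN Schwann cells (500-1,000/well) in phenol-red-free DMEM with 10% FBS received 23 nL compound by pin tool for 24 h at 37 °C. Viability was then read as CellTiter-Glo luminescence after 15 min at room temperature.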
% is scaled to controls: 0 for no effect and ±100 for the full control effect; potency is read from the fitted curve at half-maximal effect.

Compound | activity change, negative = cytotoxicity | Potency
O=C(NCCC1=CCCCC1)c1ccc2c(c1)N(Cc1cccc(Cl)c1)C(=O)c1ccccc1S2(=O)=O | inactive: -5.25% | 
COc1ccc(N2CCN(c3ccc(-c4nc(-c5cccc(C)c5)no4)cc3[N+](=O)[O-])CC2)cc1 | inactive: 4.23% | 
CCOC(=O)C1=C(CN(CC)Cc2ccccc2)NC(=O)NC1c1ccc(OC(C)C)cc1 (stereo not given) | inactive: -17.8% | 
COc1ccccc1CNC(=O)c1ccc(N2CCCC2)c(NC(=O)NCc2ccc(F)cc2)c1 | inactive: 1.63% | 
CCCCSCCCNC(=O)C1CCN(Cc2nc(-c3cccc(Br)c3)oc2C)CC1 | inactive: 3.93% | 
O=C(Cn1ncc2c3ccccc3n(Cc3ccccc3F)c2c1=O)N1CCCCC1 | inactive: -1.87% | 
CC(C)CN(CCCNC(=O)CN1N=C(c2ccccc2)CCC1=O)CC(C)C | inactive: 10.8% | 
CCOc1ccc(CCNC(=O)c2[nH]c3cc(OC)ccc3c2Sc2ccccc2)cc1OCC | inactive: 2.02% | 
Cc1cccn2c(=O)c3cc(C(=O)N(Cc4ccccc4)C(C)C)sc3nc12 | inactive: -17.4% | 
Cc1cccc(C(=O)Nc2nc(-c3nnn(-c4cc(F)ccc4F)c3C)ns2)c1 | inactive: 24.4% | 
Cc1c(C(=O)NCCc2ccc(S(N)(=O)=O)cc2)sc2nc3n(c(=O)c12)CCCC3 | inactive: 5.31% | 
O=S(=O)(NCc1ccccc1Cl)c1ccc(N2CCCCS2(=O)=O)cc1 | inactive: -13.6% | 
CCc1ccccc1NC(=O)CSc1nc2c(oc3ccccc32)c(=O)n1-c1ccccc1F | inactive: -7.89% | 
Cc1ccc2ccc3cc(C(=O)N4CCN(c5ccccc5)CC4)nc3c2[nH]1 | inactive: -4.11% | 
CC(=O)Nc1ccc(-c2nnc(SCC(=O)c3ccc([N+](=O)[O-])cc3)o2)cc1 | inactive: 6.27% | 
Cc1ccc(NC(=O)C(=O)NCC(c2cccnc2)N2CCN(Cc3ccccc3)CC2)cc1 (stereo not given) | inactive: -10.3% | 
CC1CCN(S(=O)(=O)c2ccc3c(c2)N(CC(=O)O)C(=O)CO3)CC1 | inactive: -17.1% | 
Cc1cccc(Cn2c(C)c(CNC3CCCCC3)c(C(=O)O)c2C)c1 | inactive: 26.8% | 
COc1ccc(-c2cc(C(F)(F)F)n3nc(C(=O)NCC45CC6CC(CC(C6)C4)C5)cc3n2)cc1OC | inactive: 10.5% | 
CCOC(=O)c1ccccc1NC(=O)N1CCOc2ccc(Cl)cc21 | inactive: 0.0828% | 
Cc1cc(Cl)ccc1NC(=O)C1CCN(c2nnc(-n3c(C)ccc3C)s2)CC1 | inactive: -0.843% | 
O=S(=O)(c1ccc(Cl)cc1)c1nnn2c1nc(N1CCCCC1)c1sccc12 | inactive: 1.86% | 
COc1ccc(OC)c(S(=O)(=O)N2CC=C(c3c(C)n(CC(=O)N4CCCC4)c4ccccc34)CC2)c1 | inactive: 4.62% | 
Cc1cn(C)c(CC(=O)N2CCN(c3ccccc3F)CC2)c1C(=O)O | inactive: -5.45% | 

Compound | activity change, negative = cytotoxicity | Potency
COc1ccc(-c2nc3sc(CCNC(=O)c4ccccc4C)c(C)n3n2)cc1 | inactive: -8.75% | 
Cc1cccc(NC(=O)N2CCC(CN3CCOCC3)CC2)c1C | inactive: 5.49% | 
Cc1ccc2c(c1)-c1c(c(C(=O)N3CCN(c4cc(Cl)ccc4C)CC3)nn1C)CS2 | inactive: 13.7% | 
CC(CNC(=O)CCS(=O)(=O)c1ccc2c(c1)oc(=O)n2C)c1ccccc1 (stereo not given) | inactive: 10.5% | 
Fc1ccccc1-n1ncc2c1ncn1nc(Cc3ccccc3)nc21 | inactive: 20.5% | 
Cc1ccccc1NC(=O)CN(c1ccc(Cl)cc1Cl)S(=O)(=O)c1ccccc1 | inactive: 5.47% | 
COC(=O)c1cccc(NC(=O)Nc2cc(C(=O)NCc3cccc(F)c3)ccc2N2CCCC2)c1 | inactive: 13% | 
N#C/C(=C\c1c(Oc2ccc(Br)cc2)nc2ccccn2c1=O)c1nc2ccccc2s1 | inactive: -4.02% | 
Cc1ccc(Cc2nc3ccccc3nc2SCC(=O)N2CCCCC2C)cc1 (stereo not given) | inactive: -22.4% | 
O=C(CSc1nc(=O)n(Cc2cccnc2)c2c1CCC2)Nc1ccc(F)cc1F | inactive: -3.18% | 
Cc1nn(C(C)C(=O)NC2CCC(C)CC2)c(=O)c2cc3sccc3n12 (stereo not given) | inactive: 2.46% | 
COc1ccccc1N1CCN(C(=O)c2cn(C)c3ccc(S(=O)(=O)N4CCOCC4)cc3c2=O)CC1 | inactive: 3.33% | 
COc1ccc(Cl)cc1NC(=O)c1cc(C)nn1-c1ccccc1 | inactive: -7.41% | 
CCOC(=O)c1c(NC(=O)c2cc(=O)c3ccc(C)cc3o2)sc(C)c1C | inactive: -1.11% | 
COc1cccc(N2CCN(S(=O)(=O)c3ccc4c(c3)CCCN4C(C)=O)CC2)c1 | inactive: -1.03% | 
CC(=O)N1CCc2cc(Br)cc(S(=O)(=O)N3CCN(c4cccc(C)c4)C(C)C3)c21 (stereo not given) | inactive: 19.2% | 
COc1ccc(N2CCN(C(=O)CS(=O)(=O)c3cccc4nsnc34)CC2)cc1 | inactive: -1.52% | 
CCCCN1CCc2nc(N3CCN(C)CC3)ncc2C1 | inactive: 8.8% | 
O=C(NCCc1csc(-c2cccnc2)n1)c1ccc(F)c(F)c1 | inactive: 0.751% | 
CCOC(=O)c1c(S(=O)(=O)N2CCC(C(=O)N3CCN(c4cc(C)ccc4C)CC3)CC2)c(C)n(C)c1C | inactive: -10.2% | 
Cc1sc2c(c1C)c(=O)n(-c1ccc(Cl)cc1)c(=O)n2Cc1c(F)cccc1Cl | inactive: 3.62% | 
COc1cc(C2C(C(=O)Nc3ccccc3)=C(C)Nc3nc(SCc4ccccc4F)nn32)cc(OC)c1OC (stereo not given) | inactive: -11.5% | 
CC1CCN(S(=O)(=O)c2cc(C(=O)Nc3ccc(Br)cc3F)n(C)c2)CC1 | inactive: 8.08% | 
COC(=O)c1cc(NC(=O)CCc2c(C)nc3cc(-c4ccccc4)nn3c2C)cc(C(=O)OC)c1 | inactive: 4.39% | 

Compound | activity change, negative = cytotoxicity | Potency
Cc1ccc(-c2cc(C(=O)N3CCN(c4ccccc4)CC3)c3ccccc3n2)cc1C | inactive: -18.3% | 
COc1ccc(C)cc1NC(=O)Cn1cc(S(=O)(=O)Cc2ccccc2Cl)c2ccccc21 | inactive: -20.8% | 
CCOc1cc2c(cc1OCC)C(c1c(F)cccc1Cl)CC(=O)N2 (stereo not given) | inactive: 0.42% | 
CCc1ccccc1NC(=O)c1nc(-c2ccncc2)no1 | inactive: 1.02% | 
Cc1cccc(NC(=O)Cn2c(C(F)(F)F)nc3ccccc32)c1C | inactive: 4.78% | 
O=C(NCCc1csc2nc(-c3ccc(F)cc3)nn12)c1ccco1 | inactive: -2.62% | 
Cc1ccc(N2CC(NC(=O)C(=O)c3c[nH]c4ccccc34)CC2=O)cc1 (stereo not given) | inactive: -3.49% | 
COc1ccccc1OCC(=O)NCC1(N(C)C)CCCCC1 | inactive: 0.782% | 
CC(C)CCNC(=O)c1ccc2c(c1)N(Cc1ccccc1F)C(=O)c1ccccc1S2=O (stereo not given) | inactive: -5.02% | 
Cc1ccc(Cn2c(CCCNC(=O)C3CCCCC3)nc3ccccc32)cc1 | inactive: -2.82% | 
O=C(Cn1ncc2c(Cl)cccc21)NCc1cccc(Br)c1 | inactive: -0.431% | 
COc1ccc(C2=C(C)C(=O)N(Cc3ccc(C(=O)Nc4ccc(F)cc4C)cc3)S2(=O)=O)cc1 | inactive: -0.147% | 
CCN(CC)CCn1c(=N)n(CCOc2ccccc2Cl)c2ccccc21 |  | active: 28.2 µM
Cc1cccc(-c2nc(CS(=O)CC(=O)NCc3ccc(Cl)cc3)c(C)o2)c1 (stereo not given) | inactive: -4.06% | 
O=C1CN(C(=O)c2ccc(S(=O)(=O)N3CCCCC3)cc2)C(c2ccc(F)cc2)c2cc(Cl)ccc2N1 (stereo not given) | inactive: -14.6% | 
Cc1ccc2nc(-c3cccc(NC(=O)c4cccc5c(Cl)cccc45)c3)oc2c1 | inactive: -20.4% | 
CCOC(=O)c1c(C)oc2nc(C)nc(NCC3CCN(Cc4ccccc4C)CC3)c12 | inactive: 12.2% | 
O=C(NCC(c1cccnc1)N1CCOCC1)C(=O)Nc1ccc(Cl)cc1 (stereo not given) | inactive: 1.61% | 
COc1ccc(-c2[nH]ncc2C(=O)NCc2cccc(Cl)c2)cc1 | inactive: -13.7% | 
COc1cccc(-c2cn3c(n2)sc2cc(C(=O)NCc4ccccc4F)ccc23)c1 | inactive: 13.5% | 
CCOC(=O)c1cc(-c2ccccc2)n(CC(=O)NCc2ccc(C)cc2)c1C | inactive: 2.6% | 
COc1ccc(CNC(=O)CCCN2C(=O)CCn3nc(-c4cn(C)c5ccccc45)cc32)cc1 | inactive: -13.3% | 
O=C(NCCC1=CCCCC1)C1CCN(C(=O)N2CCOc3ccccc32)CC1 | inactive: 4.57% | 
COc1ccc(OC)c(NC(=O)Cn2ncc3c2-c2ccccc2OC3)c1 | inactive: 0.207% | 

Compound | activity change, negative = cytotoxicity | Potency
O=C(NCCc1ccc(Cl)cc1)C1(c2cccs2)CCOCC1 | inactive: 22.9% | 
Cc1ccc(-n2c(=O)c3cccnc3n2CC(=O)Nc2ccc(C)cc2Cl)cc1 | inactive: -6.9% | 
Cc1c(Cl)cccc1NC(=O)CSc1nc(=O)[nH]c2c1CCCC2 | inactive: -13% | 
CC(C)(C)c1ccc(C(=O)Nc2ccc(OCc3cc(=O)n4ccsc4n3)cc2)cc1 | inactive: 13.8% | 
Cc1cc(N2CCN(c3ccccc3)CC2)n2cnnc2n1 | inactive: 3.45% | 
COc1ccc(CCNC(=O)c2ccc(Cn3c(=O)c4ccccc4n(Cc4ccc(F)cc4Cl)c3=O)cc2)cc1OC | inactive: 13.3% | 
CCC(Sc1nc2cc(OC)c(OC)cc2c(=O)n1Cc1ccc(OC)cc1)C(=O)NCCOC (stereo not given) | inactive: -4.47% | 
CC(=O)c1ccc(NC(=O)c2cc(S(=O)(=O)N3CCOCC3)ccc2C)cc1 | inactive: 3.57% | 
Cc1nc(N2CCOCC2)c2c(C(=O)N(C)c3ccccc3)c(C)oc2n1 | inactive: 0.616% | 
CC(C)Cc1nn2c(=O)cc(COC(=O)c3cccc(NS(C)(=O)=O)c3)nc2s1 | inactive: 13.7% | 
Cc1cc(C)cc(OCC(=O)N(Cc2ccc(Cl)cc2)C2CCS(=O)(=O)C2)c1 (stereo not given) | inactive: 1.23% | 
COc1ccccc1CNC(=O)C1CCN(C2=NS(=O)(=O)C(c3ccc(C)c(C)c3)=C2C)CC1 | inactive: -14.1% | 
Cc1nc(-c2ccc(F)cc2)sc1CCNC(=O)c1ccc(OC(C)C)cc1 | inactive: -0.373% | 
CCN1CCN(C(=O)c2ccc3c(c2)N(Cc2ccccc2)C(=O)c2ccccc2S3(=O)=O)CC1 | inactive: 1.33% | 
CCOc1ccc(-c2cn3c(n2)sc2cc(C(=O)N4CCCC(C)C4)ccc23)cc1 (stereo not given) | inactive: -10.7% | 
CC1CCN(c2csc3ccc(F)cc3c2=O)CC1 | inactive: 7.99% | 
Cc1ccccc1CNC(=O)C(=O)NCC(c1ccc2c(c1)OCO2)N1CCOCC1 (stereo not given) | inactive: -0.91% | 
CN(CCCNC(=O)Cn1ncc2c([nH]c3ccccc32)c1=O)Cc1ccccc1 | inactive: 3.39% | 
Cc1ccc2c(c1)-c1c(cnn1CC(=O)N1CCN(c3cc(C)ccc3C)CC1)CO2 | inactive: 3.99% | 
COCCc1nn2c(=O)cc(COC(=O)c3ccco3)nc2s1 | inactive: 10.2% | 
O=C(NCc1ccc(Cl)cc1)c1ccc(CNS(=O)(=O)c2ccc(F)cc2)cc1 | inactive: 0.29% | 
COc1ccc(Cl)cc1NC(=O)CSc1nnc2[nH]c(=O)cc(C)n12 | inactive: -2.86% | 
CCOc1ccc(-c2nc(C(N)=O)c3c(n2)n(-c2ccc4c(c2)OCO4)c(=O)n3CC)cc1 | inactive: 23% | 
